Measurements as given in the RNAGym collection of RNA variant scans (doi:10.1073/pnas.2313332121).
Variants at the floor of the assay are shown more often than the library holds them.

B1: TPR 5TU (parent)
chain: GGAUCUUCUCGAUCUAACAAAAAAGACAAAUCUGCCACAAAGCUUGAGAGCAUCUUCGGAUGCAGAGGCGGCAGCCUUCGGUGGCGCGAUAGCGCCAACGUUCUCAACUAUGACACGCAAAACGCGUGCUCCGUUGAAUGGAGUUUAUCAUG

Variants of: B1
Experiment: polymerase ribozyme fitness, log enrichment relative to wild type (log ratio); higher = more active; in vitro selection for triplet polymerase activity
Procedure, shortened: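 The heterodimeric triplet polymerase ribozyme's subunits were each mutagenized into PCR-built libraries and transcribed. Every library was selected once, in triplicate, by annealing with a biotinylated primer, the partner subunit and triplets, incubating frozen at −7 °C, gel-excising extended constructs, capturing on streptavidin beads and running RT-PCR. Input and output libraries were Illumina-sequenced, with genotypes kept only at ≥10 input reads and ≥1 read per output. Fitness, from inverse-variance-weighted replicate averages, is the base-2 logarithm of genotype enrichment over wild-type enrichment.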

Polymerase ribozyme fitness (log ratio), ≤ -4.2:
GGAUCUUCUCGAUCUAACAUAAAAGACAAAUCUGCCACAAAGCUUGAGAUCAUCUUCGGAUGCAGAAGCGGCAGCCUUCGGUGGCGCGAUCGCGCCAACGUUCUCAACUAUGAUACGCAAAACGCGUGCUCCGUUGAAUGGAGUUUAUCAUG [A20U G50U G67A A91C C114U]
GGAUCUUCUCGAUCUAACAUAAAAGACAAAUCUGCCACAAAGCUUGAGAGCAUCUUCGGAUGCAGAGGCGGCAGCCUUCGGUGACGCGAUAGCGCCAACGUUCUCAAUUAUGACACACAAAACGCGUGCUCCGUUGAAUGGAGUUUAUCAUG [A20U G84A C108U G117A]
GGAUCUUCUCGAUCUAACAACAAAUACAAAUCUGCCACAAAGCAUGAGAGCAUCUUCGGAUGCAGAGGCGGCAGCCUUCGGUGCCGCGAUAGCGCCGACGUUCUCAACUAUGACACGCAAAACGCGUGCUCCAUUGAAUGGAGUUUAUCAUG [A21C G25U U44A G84C A97G G133A]
GGAUCUUCUCGAUCUAACAUAAAAGACAAAUCUGCCACAAAGCUUGAGAGCAGCUUCGGAUGCAGAGGCGGCAGCCUUCGGUGGCGCGAUAGCGCCAACGUUCUCAACUAUGACACGCAAAACGCGUGCUCCGUUGAAUGGAGUUUAUCAUG [A20U U53G]
GGAUCUUCUCGAUCUAACAUAAAAGACAAAUCUGCCACAAAGCUUGAGAGCAUCUUCGGAAGCAGAGGCGGCAGCCUUCGGUGGCGCGAUAACGCCAACGUUCUCAACUAUGACACGCAAAACGCGUGCUCCGUUGAAUGGAGCUUAUCAUG [A20U U61A G92A U144C]
GGAUCUUCUCGAUCUAACAACAAAGACAAAUCUGCCAAAAAGCUUGAGUGCAUCUUCGGAUGCAGAGGCGGCAGCCUUCGGUCGCGCGAUAGCGCCAACGUUCUCAACUAUGACACGCAAAACGCGUGCUCAGUUGAAUGGAGUUUAUCAUG [A21C C38A A49U G83C C132A]
GGAUCUUCUCGAUCUAACAACAAAGACAAAUGUGCCUCAAAGCUUGAGGGCAUCUUUGGAUGCAGAGGCGGCAGGCUUCGGUGACGCGAUAGCGCCAACGUUCUCACCUAUGACACGCAAAACGCGUGCUCCGUUGAAUGGAGUUUAUCAUG [A21C C32G A37U A49G C57U C75G G84A A107C]
GGAUCUUCUCGAUCUAACAACAAAGACAAAUCUGCCACAAAGCUUGAGAGCAUCUUCGGAUGCAGAGGAGGCAGCCUUCGGUGGCGGGAUAGCGCCAUCGUUCUCAACUAUGACACGCAAAACGCGUGCUCCGUUGAAUGGAGUUUAUCAUG [A21C C69A C87G A98U]
GGAUCUUCUCGAUCUAACAACAAAGACAAAACUGCCACAAAGCUUGAGAGCAUGUUCGGAUGCAGAGGCGGCAGCCUACGGUGGCGCGAUCGCGCCAACGUUCUCAACUAUGACCCGCAAAACGCGUGCUCCGUUGAAUGGAGUUUAUCAUG [A21C U31A C54G U78A A91C A115C]
GGAUCUUCUCGAUCUAACAUAAAAGACAAAUCUGCCACAAAGCUUGAGAGCAUCUUCAGAUGCAGAGGCGGCAGCCUUCGGUGGCGAGAUAGCGCCAACGUUCUCCACUAUGACACGCAAAACGCGUGCUCCGUUGAAUGGAGUUUAUCAUG [A20U G58A C87A A106C]
GGAUCUUCUCGAUCUAACAUAAAAGACAAAUCUGCCACAAAGCUUGAGAGCAUCUUCAGAUGCAGAGGCGGCAGCCUUCGGUGGCGCGAUCGCGCCAACGUUCUCAACUAUGACACGCAAAACGCGUGCUCCGUUGAAUGGAGUUUAUCAUG [A20U G58A A91C]
GGAUCUUCUCGAUCUAACAUAAAAGACAAAUCUGCCACAAAGCUUGAGAGCAUCUGCGGUUGCAGAGGCGGCAGCCUUCGGUGGCGAGAUAGCGCCAACGUUCUCAACUAUGACACGCAAAACGUGUGCUCCGUUGAAUGGAGUUUAUCAUG [A20U U56G A60U C87A C125U]
GGAUCUUCUCGAUCUAACAUAAAAGACAAAUCUGCCACAAAGCUUGAGAGCAUCUUCGGAUGCAGAGGCGGCAGCCUUCGGUGGCGCGAUAACGCCAACGUUCUCAAUUAUGACACGCAAAACGCGUGCUCCGUUGAAUAGAGUUUAUCAUG [A20U G92A C108U G140A]
GGAUCUUCUCGAUCUAACAACAAAGACAAAUCUGCCACAAAGCUUGAGAGCAUCUUCGGAUGCAGUGGCGGCCGCCUUCGGUGGCCAGAUAGCGCAAACGUUCUCAACUAUGACACGCAAAAGGCGUGCUCCGUUGAAUGGAGUUUACCAUG [A21C A66U A73C G86C C87A C96A C123G U148C]
GGAUCUUCUCGAUCUAACAACAAAGACAAAUCUGCCACAAAGCUUGAGAGCAUCUUCGGAUGCAGAGGCGGCAGCCUUCGGUGGCGCGAUCGCGCCAACGUUCUCAACUAUGACACGCAAAACGCGUGCUCCGUUGAAUGGAGUUUAUCAUG [A21C A91C]
GGAUCUUCUCGAUCUAACAACAAACACAAAUCUGCCACAAAGCUUGCGAGCAUCUUCGGAUGCAGAGGCGGCAGCCUUCGGUGGCGAGAUAGCGCCAACGUUCUCAACUAUGACACGCAAAACGCGUGCUCCGUUGAAUGGAGUUUAUCAUG [A21C G25C A47C C87A]
GGAUCUUCUCGAUCUAACAACAAAGACAAAACUGCCACAAAGCUUGAGAGCAUCUUCGGAUGCAGAGGCGGCAGCCUUGGGUGGCGCGAUAGCGCCAACGUUCUCAACUAUGACACGCAAAACGCGUGCUCCGUUGAAUGGAGUUUAUCAUG [A21C U31A C79G]
GGAUCUUCUCGAUCUAACAACAAAGACAAAUCUGCCACAAAGCUUGAGAGCAUCUUCGGAUGCAGAGGCGGCAGCCUUCGGUGGCGCGAUAGCGCCAACGUUAUCAACUAUGACACUCAACACGCGUGCUCCGUUGAAUGGAGUUUAAGAUG [A21C C103A G117U A121C U148A C149G]
GGAUCUUCUCGAUCUAACAACAAAGACAAAUAUGCCACAAAGCUUGAGACCAUCUUCGGAUGCAGAGGCGGCAGCCUUCGGUGGUGCCAUAGCGCUAACGUUCUCAAGUAUGACACGCAAAACGCGUGCUCCGUUGAAUGGAGUUUAUCAUG [A21C C32A G50C C85U G88C C96U C108G]
GGAUCUUCUCGAUCUAACAACAAAGACAAAUCUGCCUCAAAGUUUGAGAGCAUCUUCGGAUGCAGAGGCGGCAGCCUUCGGUGGCGCGAUAGCGCCAAUGUUCUCAACUAUGACACGCAAAACGCAUGCUCCGUUGAAUGAAGUUUAUCAUG [A21C A37U C43U C99U G126A G141A]
GGAUCUUCUCGAUCUAACAUAAAAGACAAAUCUGCCACAAAGCUUGAGAGCAUCUUCGGAUGCAGAGGCCGCAGACUUCGGUGGCGCGAUAGCGCCAACGUUCUCAACUAUGACACGCAAAACGCGUGCUCCGUUGAAUGGAGUUUAUCAUG [A20U G70C C75A]
GGAUCUUCUCGAUCUAACAACAAAGACAAAUGUGCCACAAAGCUUGAGAGCAUCUUCGGAUGCAGAGGCGGCAGCAUUCGGUGGCGCGAUAGCGCCAACGUUCUCAACUAUGACACGCAAAACGCGUGCUCCGUUGGAUGGAAUUUAUUAUG [A21C C32G C76A A137G G143A C149U]
GGAUCUUCUCGAUCUAACAACAAAGACAAAUCUGCCACAAAGCCUGAGAGUAUGUUCGGAUGCAGAGGCGGCAGCCUUCGGUGGCGCGAUAGCCCCAACGUUCUCAACUAUGACACGCAAAACGCGUGCUCCGUUGAAUGGAGCUUAUGAUG [A21C U44C C51U C54G G94C U144C C149G]
GGAUCUUCUCGAUCUAACAACAAAGACAAAUCUGCCACAAAGCUUGAGAGCAUCUUCGGAUGCAGAGGCGGCAGCCUUCGGUGGUGCGAUCGCGCCACCGUUCUCAACUAUGACACGCAAAACGCGUGCUCCGUUGAAUGGAGUUUAUCAUG [A21C C85U A91C A98C]
GGAUCUUCUCGAUCUAACAACAAAGACAAUUCUGCCACAAAGCUUGAGAGCAUCUUCGGAUGCAGAGGCGGUAGCCUUCGGUGGCGCUAUAGCGCCAACGUUCUCAACUAUGACACGCAAAACGCGUGCUCCGUUGAAUGCAGUUCAUCAUG [A21C A30U C72U G88U G141C U146C]
GGAUCUUCUCGAUCUAACAUAAAAGACAAAUCUGCCACAAAGCUUGAGAGCAUCUUCGGAUGCAGAGGCGGCAGCCUUCGCUGGCGCGAUUGCGCAAACGUUCUCAACUAUGACACGCAAAACGCGUGCUCCGUUGAAUGGAGUUUAUCAUG [A20U G81C A91U C96A]
GGAUCUUCUCGAUCUAACAACAAAGACAAAUCUGCCACAAAGCUUGAGAGCAUCUUUGGAUGCAGAGGCGGCAGCCUUCGGUGGCGCGAUUGCGCCAACGUUCUCAACUAUGACACGCAAAACGCGUGCUCCGUUGAAUGGAGUUUAUCAUG [A21C C57U A91U]
GGAUCUUCUCGAUCUAACAACAAAGACAAAUCUGCCACAAAGCUUGAGAGCAUCUUCGGAUGCAGAGGCGGCAGCCUUCGGUGGCGCGAUAGCGCCAACGUUGUCAACUAUGACACGCAAAACGCGUGCUCCGUUGAACGCAGUUUCUCAUG [A21C C103G U139C G141C A147C]
GGAUCUUCUCGAUCUAACAACUAAGACAAAUCUGCCAUAAAGCUUGAGAGCAUCUUCGGUUGCAGAGGCGGCAGCCUUCGGUCGCGCGAUAGCGCCAACGUUCUCAACGAUGACACGCAAAACGCGUGCUCCGUUGCAUGGAGUUUAUCAUG [A21C A22U C38U A60U G83C U109G A137C]
GGAUCUUCUCGAUCUAACAUAAAAGACAAAUCUGCCACAAAGCUCGAGAGCAACUUCGGAUGCAGAGGCGGCAGCCUUCGGUGGCGCGAUAACGCCAACGUUCUCAACUAUGACACGCAAAACGCGUGCUCCGUCGAAUGGAGUUUUUCAUG [A20U U45C U53A G92A U135C A147U]
GGAUCUUCUCGAUCUAACAACAAAGACAAAUCUGCCACAAAGCUUGAGAGCAUCUUCGGAUGCAGAGGCGGCAGCCUUCGGUGGCGCGAUAGCGCCAACGUUCUCAGCUAUGACGCGUAAAACGCGUGCUCCGUUGAAUGGAGUUUAUCAUG [A21C A107G A115G C118U]
GGAUCUUCUCGAUCUAACAUAAAAGACAAAUCUGCCACAAAGCUUGAGAGCAUCUACGGAUGCUGAGGCGGCAGCCUUCGGUCGCGCGAUAGCGCCAACGUUCUCAACUAUGACACGCAAAACGCGUGCUCCGUUGAAUGGAGUGUAUCAUG [A20U U56A A64U G83C U145G]
GGAUCUUCUCGAUCUAACAUAAAAGACAAAUCUGCCACAAAGCUUGAGACCAUCUUCGGAUGCAGAGGCGGCAGCCUUCGGUGGCGCGAUAGCGCCAACGUUCUCAACUAUGACACGCAAAACGCGUGCUCCGUUGAAUGGAGUUUAUCAUG [A20U G50C]
GGAUCUUCUCGAUCUAACAUAAAAGACAAAUCUGCCACAAAGCUUGAGAGCAUCUUCGGAUGCAGAGGCUGCAGCCUUCGGUGGCGCCAUAGCGCCAACGUUCUCAACUAUGACACGCAAAACGCGUGCUCCGUUGAAUGGAGUUUAUCAUG [A20U G70U G88C]
GGAUCUUCUCGAUCUAACAACAAAGACAUAUCUGCCAGAAAGCUUGAGAGCAUCUUCGGAUGCAGAGGCGGGAGCCUUCGGUGGCGCGAUAGCGUCAACGUUCUCAACUAUGACACGCAAAACGCGUGCCCCGUUGAAUGGAGUUUAUCAUG [A21C A29U C38G C72G C95U U130C]
GGAUCUUCUCGAUCUAACAACAAAGACAAAUCUGCCACAAAGCUUGACAGUAUCUUCGGAGGCAGAGGCGGCAGCCUUCGGUGGCGCGAUAGCGACAACGUUCUCAACUAGGACACGCAAAACGCGUGCUCCGUUGAAUGGAGUUUAUCAUG [A21C G48C C51U U61G C95A U111G]
GGAUCUUCUCGAUCUAACAUAAAAGACAAAUCUGCCACAAAGCUUGAGAACAUCUUCGGAUGCAGAGGCGGCAGCCUUCGGUGGCGCGAUAGCGGCAACGUUCUCAACUAUGACACGCAAAACGCGUGCUCCGUUGAAUGGAGUUUAUCAUG [A20U G50A C95G]
GGAUCUUCUCGAUCUAACAACAAAGACAAAUCUGCCACAAAGUUUGAGAGCAUCUUCGGAUGCAGAGGCAGCAGCCUUCGGUGGCGCGAUAGCAACAACGUUCUCAACUAUGACACGCAAAACGCGUGCUCCGUUGAAUGGAGUUUAUCAUG [A21C C43U G70A G94A C95A]
